Earlier results in publication PMC9967956, “Efficacy of Trichoderma longibrachiatum Trichogin GA IV Peptaibol analogs against the Black Rot Pathogen Xanthomonas campestris pv. campestris and other Phytopathogenic Bacteria” (Microorganisms, 2023).
Where a SMILES comes first, the peptide text is derived from it. [ ]: non-standard residue; d: D form. The star is where a group is joined. Leu(ol) = CC(C)C[C@H](N)CO; Octanoyl = CCCCCCCC(=O)*; Aib = CC(C)(N)C(=O)O

Test system: B. cinerea
Settings: cited from earlier work

Compound	Efficacy towards B. cinerea
nOct-Aib-Lys-Leu-Aib-Lys-Gly-Leu-Aib-Gly-Ile-Lol [Peptide 1, full-length synthetic analog of trichogin GA IV]	poorly effective
CCCCCCCC(=O)NC(C)(C)C(=O)N[C@@H](CCCCN)C(=O)N[C@@H](CC(C)C)C(=O)NC(C)(C)C(=O)NCC(=O)NCC(=O)N[C@@H](CC(C)C)C(=O)NC(C)(C)C(=O)NCC(=O)N[C@H](C(=O)N[C@H](CO)CC(C)C)[C@@H](C)CC [Peptide 2] (Octanoyl-[Aib]KL[Aib]GGL[Aib]GI[Leu(ol)])	poorly effective
nOct-Aib-Lys-Leu-Aib-Gly-Lys-Leu-Aib-Gly-Ile-Lol [Peptide 7, full-length synthetic analog of trichogin GA IV]	poorly effective
nOct-Aib-Gly-Leu-Aib-Lys-Aib-Leu-Aib-Gly-Ile-Lol [Peptide 6, full-length synthetic analog of trichogin GA IV]	poorly effective
